The other results are listed elsewhere or left out. The energies were worked out here from pooled read counts, against the library average; single values are noisy.
biological target: T1, Pho4 (S. cerevisiae) (UniProt P07270); test: relative binding free energy (BET-seq); higher = weaker binding; settings: reference: library average
T1 sequence: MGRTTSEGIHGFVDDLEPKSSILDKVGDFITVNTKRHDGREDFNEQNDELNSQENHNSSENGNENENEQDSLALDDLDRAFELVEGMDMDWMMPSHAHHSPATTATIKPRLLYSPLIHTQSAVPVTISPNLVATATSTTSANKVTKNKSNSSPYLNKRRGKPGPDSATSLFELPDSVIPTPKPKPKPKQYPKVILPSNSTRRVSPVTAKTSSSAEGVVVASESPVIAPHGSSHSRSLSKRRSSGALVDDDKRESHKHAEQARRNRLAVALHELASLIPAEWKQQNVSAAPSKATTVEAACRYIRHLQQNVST

| Sequence | relative binding free energy [kcal/mol] |
| --- | --- |
| TGTGCCACGTGTATTT | -0.2 |
| AGAAACACGTGGGCGG | -0.18 |
| TATGGCACGTGGTTCA | -0.05 |
| TCTTTCACGTGTGGAT | 0.33 |
| TATGGCACGTGGGAGT | -0.1 |
| AGTGACACGTGTAATT | 0.18 |
| ACATTCACGTGAGGTG | 0.16 |
| CGGCTCACGTGGGGGT | 0 |
| AGTGCCACGTGATGGG | 0.04 |
| GTTTGCACGTGAGGTC | 0.29 |
| TTTGGCACGTGCTTAG | -0.18 |
| TCTTGCACGTGGAGGC | -0.07 |
| TGGTACACGTGGGAGC | -0.13 |
| TTTTACACGTGTACGC | 0.31 |
| TGCGACACGTGTAGGA | 0.17 |
| GTGGACACGTGCGTTT | 0.06 |
| AAAGTCACGTGGAGGG | 0.08 |
| ATGGACACGTGTATTA | 0.03 |
| TCGGTCACGTGATGTT | 0.2 |
| GTTATCACGTGTAAGT | 0.29 |
| CAGGTCACGTGTGCGG | 0.04 |

| Sequence | relative binding free energy [kcal/mol] |
| --- | --- |
| GTAAGCACGTGTAGTC | 0.09 |
| TGGTTCACGTGGTAAA | 0.16 |
| GGTACCACGTGTGTAG | -0.08 |
| CCTTTCACGTGTGTGG | 0.07 |
| TCTCTCACGTGGGGCG | 0.15 |
| CAGGTCACGTGTGAGG | -0.04 |
| CGTTACACGTGAGAGG | 0.4 |
| ATGCGCACGTGGGGGC | -0.21 |
| GGGGGCACGTGCTTGC | -0.17 |
| TTCGACACGTGGGTGT | -0.12 |
| TGTCTCACGTGAGGTC | 0.31 |
| ATTAGCACGTGATCTT | 0.02 |
| AGGGTCACGTGGTTTA | 0.05 |
| TTGTGCACGTGATTAT | -0.03 |
| GAGTGCACGTGTCTTT | 0.19 |
| CGCTTCACGTGGGGCG | 0.1 |
| GTAGTCACGTGTACTG | 0.09 |
| GGGGACACGTGCTAGG | -0.19 |
| TTTTTCACGTGCTTTG | 0.21 |
| TAGATCACGTGACGGT | 0.3 |
| ATGTGCACGTGTTGTG | 0 |

| Sequence | relative binding free energy [kcal/mol] |
| --- | --- |
| CAGGTCACGTGGGAAG | 0 |
| GGAGACACGTGTGGGA | 0.04 |
| TGAGGCACGTGGTTCA | -0.14 |
| TGGAACACGTGGCGGA | 0.02 |
| CCTATCACGTGTGGGG | 0.12 |
| GGCTACACGTGTGGTT | 0.29 |
| GTTTGCACGTGGATAA | 0.14 |
| ATAGTCACGTGGGCAT | -0.08 |
| TTGGACACGTGGCGCT | -0.01 |
| ATTGTCACGTGCTATG | -0.2 |
| GCGGGCACGTGGGGAC | -0.16 |
| TGTGTCACGTGACGTG | 0.18 |
| ATTGGCACGTGGTTAT | -0.17 |
| GAGTACACGTGATGAG | 0.27 |
| ATGTGCACGTGCTGTG | 0.04 |
| GTAATCACGTGGAGAT | 0.24 |
| CTCGTCACGTGTATGT | 0.13 |
| GTGTGCACGTGGAGGC | 0.03 |
| GAAAACACGTGGGGTT | -0.03 |
| ATTTACACGTGTGGTG | 0.17 |
| TTGGTCACGTGTCGAG | 0.16 |

Source: the BET-seq Pho4 binding data (Le et al. 2018)
